Results are given in words; binding and its absence hold for the method and conditions named. In cells and extracts the contact can be indirect. Some results given as binding are weak or reduced against the parent protein; the word gives no strength. Sequences can lack the tags named with a protein.
Target: T1, GST-tagged Yra1p (S. cerevisiae) (UniProt Q12159)
T1 sequence: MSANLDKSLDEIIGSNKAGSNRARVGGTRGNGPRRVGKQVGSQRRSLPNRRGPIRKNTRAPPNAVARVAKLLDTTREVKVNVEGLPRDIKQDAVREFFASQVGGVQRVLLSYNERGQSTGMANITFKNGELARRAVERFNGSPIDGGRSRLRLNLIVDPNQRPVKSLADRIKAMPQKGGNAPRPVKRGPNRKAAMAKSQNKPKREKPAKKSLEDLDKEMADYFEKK
Test: pull-down; in vitro competition assay: Yra1p-Pcf11p complex immobilised on GST sepharose beads, brief wash, Sgf73p added, released Pcf11p in the supernatant assessed by Western blotting

Amino acid sequences for entries named in this document (tags omitted).
UniProt P39081: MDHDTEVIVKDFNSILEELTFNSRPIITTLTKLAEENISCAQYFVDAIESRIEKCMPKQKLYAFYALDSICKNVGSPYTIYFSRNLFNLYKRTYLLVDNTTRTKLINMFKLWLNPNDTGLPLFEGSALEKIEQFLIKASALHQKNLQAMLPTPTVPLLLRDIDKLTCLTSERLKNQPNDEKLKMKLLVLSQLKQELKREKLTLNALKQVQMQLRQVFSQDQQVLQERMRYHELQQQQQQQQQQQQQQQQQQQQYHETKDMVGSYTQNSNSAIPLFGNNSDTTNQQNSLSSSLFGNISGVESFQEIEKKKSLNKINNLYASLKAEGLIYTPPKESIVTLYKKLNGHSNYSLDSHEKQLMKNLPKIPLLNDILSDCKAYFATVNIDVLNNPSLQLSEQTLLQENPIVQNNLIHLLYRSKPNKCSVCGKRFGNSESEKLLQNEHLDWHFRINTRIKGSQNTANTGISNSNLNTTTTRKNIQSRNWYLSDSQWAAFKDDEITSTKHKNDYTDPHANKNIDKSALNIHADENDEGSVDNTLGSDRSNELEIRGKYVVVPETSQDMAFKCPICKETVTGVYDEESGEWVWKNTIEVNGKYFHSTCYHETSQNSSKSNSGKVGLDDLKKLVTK

binding: binds
Substance: Pcf11p (His-tagged, in vitro competition assay) (from UniProt P39081 1-626)
